In all, about 48,000 compounds went through this assay and about 1,200 (2.5%) were called active. Inconclusive results (about 2%) are left out.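 How the source made its calls: active means activation of at least 60% and not above a set upper limit (about 1 call in 100 departs from these limits); inconclusive means activation of 40% to 60%, or above that upper limit; inactive means activation under 40%.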 The list shows a part of the results.

Sequence of UniProt O75388 (O75388 whole entry, looked up): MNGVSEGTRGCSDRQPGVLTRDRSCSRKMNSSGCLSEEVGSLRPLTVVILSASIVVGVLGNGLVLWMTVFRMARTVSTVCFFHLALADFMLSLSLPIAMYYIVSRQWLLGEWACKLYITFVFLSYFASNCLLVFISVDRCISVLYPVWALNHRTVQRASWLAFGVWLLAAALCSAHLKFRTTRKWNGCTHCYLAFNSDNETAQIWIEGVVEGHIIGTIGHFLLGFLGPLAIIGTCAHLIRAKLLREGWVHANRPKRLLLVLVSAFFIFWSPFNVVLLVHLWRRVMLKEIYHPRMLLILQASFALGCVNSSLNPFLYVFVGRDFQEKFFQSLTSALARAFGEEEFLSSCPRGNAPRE

For this assay, the target named is Probable G-protein coupled receptor 32 (Homo sapiens) (UniProt O75388). Description: qHTS for Agonists of Human Resolvin D1 Receptor DRV1. Further: 0% is about no effect. The conditions noted are these: CHO-K1 GPR32 beta-arrestin PathHunter luminescence, 90 min; at 76.9 µM; stronger effect = higher value; zero percent set by DMSO-only wells. In outline:
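Readings come from a cell-based beta-arrestin complementation format: CHO-K1 GPR32 stable cells (2,500/well) treated 90 min with compounds, then beta-Gal substrate added for 1 h before chemiluminescence imaging.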
In the case of `O=C(CC1Oc2ccccc2NC1=O)NCc1ccc(F)cc1` (configuration not stated), the activation is inactive: -0.137%.

Turning to `CCn1c2c(c(=O)n3ncc(C(=O)Nc4ccc(F)cc4Cl)c13)CN(Cc1ccc(OC)cc1)CC2`, the activation was inactive: -11.1%.

Turning to `CCN1CCN(C(=O)c2ccc3c(c2)N(Cc2ccc(F)cc2)C(=O)c2ccccc2S3(=O)=O)CC1`, the activation was inactive: -24.9%.

On to `Cc1cccc(OCc2nnc(-c3ccccc3)o2)c1`, for which the activation is inactive: -14.2%.

For the compound `CCOc1ccc(NC(=O)c2oc(=O)c3ccccc3c2-c2ccc(C)cc2)cc1`, the activation was inactive: 10.1%.

For `COc1cccc(NC(=O)c2sc3nc(C)c(C(=O)Nc4ccc(C)cc4C)c(-c4cccs4)c3c2N)c1`, the activation is inactive: -19.8%.

On to `CCOc1ccc(-n2c(Cc3ccccc3)nnc2SCc2nc(-c3cccs3)no2)cc1`, for which the activation is inactive: 5.24%.

As for `Cc1ccc(-c2nc(-c3cc4cccc(OCc5cccc(F)c5)c4oc3=O)no2)cc1`, the activation is active: 82.2%.

Regarding `Cc1ccn2c(Nc3c(C)cccc3C)c(-c3ccc(Cl)s3)nc2c1`, the activation was inactive: 1.64%.

As to `Cc1cc(C)cc(NC(=O)C2CCN(S(=O)(=O)c3c(C)noc3/C=C/c3ccco3)CC2)c1`, the activation was inactive: -35.6%.

Turning to `Cc1ccc2scc(N3CCN(c4cccc(C(F)(F)F)c4)CC3)c(=O)c2c1`, the activation is inactive: -23.2%.

For `CCCCN(CCCC)C1=C(C(=O)c2ccccc2)N(CC)S(=O)(=O)c2ccccc21`, the activation was inactive: -72.7%.

As to `COC(=O)CN1C(=O)C(C)(C)c2cc(S(=O)(=O)NCc3ccc(Cl)cc3)ccc21`, the activation is inactive: 8.25%.

Take `COCCCNc1nc2c(c(=O)n(C)c(=O)n2C)n1Cc1ccccc1`: the activation is inactive: -1.35%.

On to `COCCOC(=O)C1=C(C)N=C2SCCC(=O)N2C1c1ccc(OCc2ccccc2)c(OC)c1` (configuration not stated), for which the activation was inactive: -25%.

In the case of `COc1cccc(-c2[nH]c3c(c2-c2c(-n4cccc4)n(C)c(=O)[nH]c2=O)c(=O)[nH]c(=O)n3C)c1`, the activation is inactive: 24.3%.

With `CN(C)c1ccc(CNC(=O)CCn2c(=O)c3cccn3c3ccc(F)cc32)cc1`, the activation was inactive: -0.944%.

Take `COc1ccccc1N1CCN(c2cc(C)nc3c(-c4ccc(Cl)cc4)c(C)nn23)CC1`: the activation is inactive: 7.14%.

As for `CCc1nnc2c(NCc3cccc(OC)c3)nc3ccccc3n12`, the activation was inactive: 10.1%.

For `COCCNC(=O)CCSc1nc(-c2ccc3c(c2)OCO3)cc(C(F)(F)F)n1`, the activation was inactive: -2.63%.

Consider `Cc1ccc(C(=O)N2CCc3cc(CNC(=O)c4ccnn4C)ccc32)cc1`, for which the activation is inactive: -15.3%.

As for `CCN(CC)S(=O)(=O)c1ccc2c(c1)c(=O)c(C(=O)NCc1ccccc1OC)cn2C`, the activation was inactive: -3.38%.

Source of the values: PubChem BioAssay AID1346428 (National Center for Advancing Translational Sciences (NCATS), 2018).
